Data on 115 sequences can be found in the BET-seq Pho4 binding data (Le et al. 2018).

The other results are listed elsewhere or left out. The energies were worked out here from pooled read counts, against the library average; single values are noisy.

The target in this assay is T1, Pho4 (S. cerevisiae) (UniProt P07270).
T1 sequence: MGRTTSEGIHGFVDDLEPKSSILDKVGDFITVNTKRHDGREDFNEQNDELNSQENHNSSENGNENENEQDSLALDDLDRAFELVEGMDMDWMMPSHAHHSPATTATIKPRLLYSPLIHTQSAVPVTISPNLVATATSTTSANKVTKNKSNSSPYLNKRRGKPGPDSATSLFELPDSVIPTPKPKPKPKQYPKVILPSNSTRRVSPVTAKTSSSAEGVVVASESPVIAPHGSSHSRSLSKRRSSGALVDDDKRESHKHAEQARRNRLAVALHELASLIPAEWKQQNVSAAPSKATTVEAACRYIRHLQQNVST
The experiment in a line: relative binding free energy (BET-seq); higher = weaker binding. The following applies: reference: library average.
For the sequence CATATCACGTGATGAG, the “relative binding free energy” value amounted to 0.35 kcal/mol.

Take GTGAACACGTGGGTTG: the “relative binding free energy” value was -0.15 kcal/mol.

Regarding TGAACCACGTGGTTGT, the “relative binding free energy” value was -0.15 kcal/mol.

With GGAAACACGTGGGGGC, the “relative binding free energy” value was -0.07 kcal/mol.

CTATTCACGTGAAGTA: the “relative binding free energy” value was found to be 0.63 kcal/mol.

Regarding GGGAGCACGTGTGCGT, the “relative binding free energy” value was -0.21 kcal/mol.

Turning to TATTTCACGTGTGCAG, the “relative binding free energy” value was found to be 0.22 kcal/mol.

On to TTGAGCACGTGGAGGG, for which the “relative binding free energy” value is -0.06 kcal/mol.

With GTAAGCACGTGCTTGG, the “relative binding free energy” value was -0.14 kcal/mol.

Take TAGAGCACGTGTTGTG: the “relative binding free energy” value was -0.06 kcal/mol.

Turning to TTCGGCACGTGGTGTT, the “relative binding free energy” value was -0.09 kcal/mol.

Turning to CGAGGCACGTGGGGTG, the “relative binding free energy” value was -0.19 kcal/mol.

Regarding GAAGACACGTGTTGGG, the “relative binding free energy” value is -0.11 kcal/mol.

Take GGTCTCACGTGGGTAG: the “relative binding free energy” value came out at 0.17 kcal/mol.

With TCGGACACGTGGTTGG, the “relative binding free energy” value was -0.02 kcal/mol.

With TACGGCACGTGTGTAG, the “relative binding free energy” value is -0.11 kcal/mol.

In the case of GTATTCACGTGGATGA, the “relative binding free energy” value was determined as 0.25 kcal/mol.

For the sequence GTATACACGTGGAGCT, the “relative binding free energy” value amounted to 0.18 kcal/mol.

As to GGGAGCACGTGGCCGG, the “relative binding free energy” value was -0.23 kcal/mol.

Consider GCGGTCACGTGTGAAG, for which the “relative binding free energy” value came to 0.32 kcal/mol.

Take TGGGTCACGTGATGCA: the “relative binding free energy” value was found to be 0.22 kcal/mol.

As to GGGAGCACGTGAAGTA, the “relative binding free energy” value was found to be 0.2 kcal/mol.

As to GGTGGCACGTGACATG, the “relative binding free energy” value amounted to 0.01 kcal/mol.

Take AGCATCACGTGAGTGG: the “relative binding free energy” value was 0.27 kcal/mol.

Regarding GTTTGCACGTGTCCTG, the “relative binding free energy” value was determined as 0.04 kcal/mol.

For GAGTGCACGTGAGGTC, the “relative binding free energy” value is 0.29 kcal/mol.

On to TCGTGCACGTGTGCTG, for which the “relative binding free energy” value is -0.05 kcal/mol.

TGGTGCACGTGTCGCT: the “relative binding free energy” value is -0.2 kcal/mol.

As to CAAGTCACGTGTTATT, the “relative binding free energy” value was 0.06 kcal/mol.

With TTTCGCACGTGAATGG, the “relative binding free energy” value worked out at 0.13 kcal/mol.

With AATTTCACGTGTTGGA, the “relative binding free energy” value amounted to 0.32 kcal/mol.

With GGGTTCACGTGCTCTG, the “relative binding free energy” value was 0.41 kcal/mol.

In the case of CCAGGCACGTGTTGTG, the “relative binding free energy” value is -0.08 kcal/mol.

As to TGGGTCACGTGCGTAA, the “relative binding free energy” value was found to be 0.01 kcal/mol.

Turning to ATTTGCACGTGGTATC, the “relative binding free energy” value is -0.17 kcal/mol.

For the sequence CGGGGCACGTGAGATG, the “relative binding free energy” value is 0.25 kcal/mol.

GCTATCACGTGGTGGG: the “relative binding free energy” value was determined as 0.05 kcal/mol.

With GGCATCACGTGGTTGC, the “relative binding free energy” value stood at 0.2 kcal/mol.

As for TGTTGCACGTGAGTCA, the “relative binding free energy” value was 0.15 kcal/mol.

Turning to CGCTGCACGTGGGCGG, the “relative binding free energy” value was -0.25 kcal/mol.

On to TAGGTCACGTGGGGTG, for which the “relative binding free energy” value was -0.08 kcal/mol.

TTGAGCACGTGGGACT: the “relative binding free energy” value was -0.2 kcal/mol.

For TGTGACACGTGGCGAA, the “relative binding free energy” value was determined as 0.05 kcal/mol.

As for ATGATCACGTGCAGGG, the “relative binding free energy” value was 0.07 kcal/mol.

Take AGTTGCACGTGGCTCG: the “relative binding free energy” value is -0.07 kcal/mol.

Turning to TGTTGCACGTGTTGAT, the “relative binding free energy” value stood at 0.09 kcal/mol.

On to CTGCGCACGTGGCGGG, for which the “relative binding free energy” value was -0.17 kcal/mol.

ATTTGCACGTGACTTT: the “relative binding free energy” value was determined as 0.05 kcal/mol.

In the case of TGAAGCACGTGAGTTT, the “relative binding free energy” value worked out at 0.13 kcal/mol.

On to AGCAACACGTGGGGGG, for which the “relative binding free energy” value is -0.12 kcal/mol.

For TGTGACACGTGTTGTT, the “relative binding free energy” value stood at 0.13 kcal/mol.

GAGGGCACGTGGTCGC: the “relative binding free energy” value was -0.18 kcal/mol.

For TGCGGCACGTGAAGTT, the “relative binding free energy” value worked out at 0.13 kcal/mol.

Regarding CATGTCACGTGTGGAG, the “relative binding free energy” value amounted to 0.02 kcal/mol.

In the case of TTGTACACGTGAGAAT, the “relative binding free energy” value was determined as 0.24 kcal/mol.

For the sequence AGTGTCACGTGAGTAT, the “relative binding free energy” value is 0.18 kcal/mol.

On to TTTGGCACGTGGCTCT, for which the “relative binding free energy” value is -0.16 kcal/mol.

As for TAATTCACGTGGTATG, the “relative binding free energy” value was determined as 0.27 kcal/mol.

In the case of GGTTACACGTGAAGGC, the “relative binding free energy” value came out at 0.28 kcal/mol.

With ATGCTCACGTGGGGAT, the “relative binding free energy” value stood at 0.14 kcal/mol.

In the case of AGTGGCACGTGGTAAT, the “relative binding free energy” value is -0.15 kcal/mol.

Take ATAGGCACGTGTAGAT: the “relative binding free energy” value is 0.01 kcal/mol.

For the sequence TTTCGCACGTGAGCGG, the “relative binding free energy” value was -0.04 kcal/mol.

Consider CTGTACACGTGTATAT, for which the “relative binding free energy” value was determined as 0.11 kcal/mol.

With GGAGCCACGTGGGGTC, the “relative binding free energy” value was -0.07 kcal/mol.

Turning to TATATCACGTGATGTT, the “relative binding free energy” value stood at 0.22 kcal/mol.

Regarding GTTCGCACGTGTCGGT, the “relative binding free energy” value is -0.03 kcal/mol.

For GGATCCACGTGTGTGA, the “relative binding free energy” value was determined as 0.18 kcal/mol.

As for CTGTACACGTGAGGGT, the “relative binding free energy” value is 0.23 kcal/mol.

Take AAGGTCACGTGTGGAT: the “relative binding free energy” value amounted to 0.18 kcal/mol.

For CAACTCACGTGTGGGG, the “relative binding free energy” value amounted to 0.3 kcal/mol.

Take TTTGACACGTGGCTTG: the “relative binding free energy” value is 0.06 kcal/mol.

In the case of TGGTGCACGTGGAGGA, the “relative binding free energy” value worked out at 0 kcal/mol.

In the case of GATGGCACGTGTTTGG, the “relative binding free energy” value was 0.09 kcal/mol.

For GTTTACACGTGTCAGG, the “relative binding free energy” value is 0.18 kcal/mol.

With TTGGTCACGTGTTTAC, the “relative binding free energy” value was determined as 0.11 kcal/mol.

GGGTACACGTGGGCGC: the “relative binding free energy” value was -0.03 kcal/mol.

For TCGGTCACGTGTAGAG, the “relative binding free energy” value is -0.01 kcal/mol.

As for TAAGTCACGTGTAGTA, the “relative binding free energy” value worked out at 0.18 kcal/mol.

For AAGGTCACGTGGCTGC, the “relative binding free energy” value came out at 0.06 kcal/mol.

As to CCCGTCACGTGGGTGG, the “relative binding free energy” value is -0.02 kcal/mol.

Turning to AGCTGCACGTGTAAGG, the “relative binding free energy” value came out at 0.07 kcal/mol.

As to AATGACACGTGTGGTC, the “relative binding free energy” value was 0.1 kcal/mol.

Regarding AGTAGCACGTGGCGTA, the “relative binding free energy” value is -0.21 kcal/mol.

In the case of TGACCCACGTGGTGGG, the “relative binding free energy” value is -0.17 kcal/mol.

Regarding AGCAACACGTGGTGGT, the “relative binding free energy” value is -0.13 kcal/mol.

GTTCGCACGTGTGATG: the “relative binding free energy” value was -0.05 kcal/mol.

Turning to ACTGTCACGTGGTGTC, the “relative binding free energy” value amounted to 0.14 kcal/mol.

As for GGTGGCACGTGGGGAC, the “relative binding free energy” value was -0.05 kcal/mol.

Take TTCTGCACGTGGAATG: the “relative binding free energy” value turned out to be 0.08 kcal/mol.

On to GGAGGCACGTGTTCTA, for which the “relative binding free energy” value was 0.04 kcal/mol.

On to TAGGTCACGTGCAGGC, for which the “relative binding free energy” value was 0.19 kcal/mol.

Regarding GCGGTCACGTGCAGGG, the “relative binding free energy” value was 0.19 kcal/mol.

CGGGACACGTGATGGT: the “relative binding free energy” value was 0.28 kcal/mol.

Consider TTAGGCACGTGGCAGT, for which the “relative binding free energy” value is -0.14 kcal/mol.

For the sequence ATATTCACGTGTAGTA, the “relative binding free energy” value was determined as 0.19 kcal/mol.

As to TGTCTCACGTGTTCAG, the “relative binding free energy” value turned out to be 0.22 kcal/mol.

Take CGAAGCACGTGGTAGG: the “relative binding free energy” value is -0.24 kcal/mol.

For the sequence AAGGTCACGTGGGTAG, the “relative binding free energy” value was 0.06 kcal/mol.

ATAGTCACGTGCGTAA: the “relative binding free energy” value was 0.15 kcal/mol.

In the case of GCGTTCACGTGTGAGA, the “relative binding free energy” value worked out at 0.53 kcal/mol.

For the sequence AGCGGCACGTGTGATG, the “relative binding free energy” value was -0.06 kcal/mol.

As to GGGTCCACGTGAATGG, the “relative binding free energy” value stood at 0.31 kcal/mol.

Consider CATGTCACGTGCGGTA, for which the “relative binding free energy” value is -0.01 kcal/mol.

As to AATATCACGTGATTGG, the “relative binding free energy” value came out at 0.27 kcal/mol.

As to GTCGGCACGTGTGCGC, the “relative binding free energy” value amounted to 0.07 kcal/mol.

With TGAGGCACGTGTTGCA, the “relative binding free energy” value is -0.11 kcal/mol.

For ATCGGCACGTGATAGT, the “relative binding free energy” value came to 0.09 kcal/mol.

As for TTTGTCACGTGACTGC, the “relative binding free energy” value came to 0.25 kcal/mol.

On to GTAGGCACGTGAATTA, for which the “relative binding free energy” value worked out at 0.13 kcal/mol.

TTCGGCACGTGAGGTC: the “relative binding free energy” value turned out to be 0.2 kcal/mol.

On to GGATTCACGTGTTCGA, for which the “relative binding free energy” value amounted to 0.18 kcal/mol.

On to TAAGACACGTGGTTTG, for which the “relative binding free energy” value came out at 0.11 kcal/mol.

For the sequence GTTTCCACGTGGTTTG, the “relative binding free energy” value is 0.05 kcal/mol.

As for GCTAGCACGTGGGGCT, the “relative binding free energy” value is -0.15 kcal/mol.
